Data taken from patent US20260209383A1, “SITE-[…] […] ANTIBODY DRUG CONJUGATES” (SEAGEN INC., priority 2022, published 2026).

How the values were obtained:
[1] = test system: BxPC-3 cells; test: In vitro cytotoxicity assay (CellTiter-Glo), BxPC-3; format: cell-based; details: BXPC3; 96 hr
Procedure: (§1) In vitro cytotoxicity assay: The cytotoxic effect of an EC4-based ADC was measured by a cell proliferation assay employing the protocol in the Promega Corp. Technical Bulletin TB288; and Mendoza et a1., 2002, Cancer Res. 62:5485-5488), the methods of which are specifically incorporated by reference herein. Briefly, an aliquot of 40 μl of cell culture containing about 400 cells in medium was deposited in each well of a 384-well, opaque-walled plate. A 10 μL aliquot of free cytotoxic agent or ADC was added to the experimental wells and incubated for 96 hr and then incubated at room temperature for approximately 30 mins whereupon a volume of CellTiter-Glo™ reagent equal to the volume of cell culture medium present in each well was added. The contents were mixed for 2 mins on an orbital shaker to induce cell lysis and the plate was incubated at room temperature for 10 mins to stabilize the luminescence signal for recordation.
(§2) Anti-ITGB6 ADCs were tested for potency. The antibodies were engineered with the cysteine pairs disclosed above in the previous Examples. The efficacy of anti-ITGB6 EC4 ADCs were also tested against conventional anti-ITGB6 ADCs. The cells were treated with conventional or EC4 ADCs, then the remaining cells were counted to assess the cytotoxic effects of each EC4 variant compared to conventional ADCs. […]

[2] = test system: HPAFII cells; test: In vitro cytotoxicity assay (CellTiter-Glo), HPAFII; format: cell-based
Procedure: as §1, §2

B1: h2A2 S400C S114C-mc-vc-MMAE(4): anti-ITGB6 antibody h2A2 with engineered cysteines S400C and S114C, conjugated with mc-vc-MMAE, DAR about 4 (conjugate)
heavy: QFQLVQSGAEVKKPGASVKVSCKASGYSFTDYNVNWVRQAPGQGLEWIGVINPKYGTTRYNQKFKGRATLTVDKSTSTAYMELSSLRSEDTAVYYCTRGLNAWDYWGQGTLVTVSS[not shown - human IgG1 constant region with S400C (EU numbers)]
light: DIQMTQSPSSLSASVGDRVTITCGASENIYGALNWYQQKPGKAPKLLIYGATNLEDGVPSRFSGSGSGRDYTFTISSLQPEDIATYYCQNVLTTPYTFGQGTKLEIKRTVAAPCVFIFPPSDEQLKSGTASVVCLLNNFYPREAKVQWKVDNALQSGNSQESVTEQDSKDSTYSLSSTLTLSKADYEKHKVYACEVTHQGLSSPVTKSFNRGEC
For B1, the x50 [1] was 236 ng/mL, the “% viability at top concentration” value [2] was 19% and the x50 ([2]; 96 hr) was 360 ng/mL.
